Data reported in PubChem BioAssay AID485344 (National Center for Advancing Translational Sciences (NCATS), 2010).
In all, about 340,000 compounds went through this assay and about 6,900 (2%) were called active. Rule as the data show it: active = inhibition above about 30%; inactive = below that, where a call was filed. The entries are a selection whose mix differs from that of the whole data set. The source gives no active or inactive call for entries shown without one.
Also: 0% is about no effect.

These compounds were tested against D(2) dopamine receptor (Homo sapiens) (UniProt P14416) (assay: HTS Assay for Allosteric Antagonists of the Human D2 Dopamine Receptor: Primary Screen for Antagonists). Settings: HEK293 TREx D2 cells, calcium flux, dopamine EC80; at 10 µM; stronger effect = higher value.
UniProt P14416, sequence (P14416 whole entry, looked up): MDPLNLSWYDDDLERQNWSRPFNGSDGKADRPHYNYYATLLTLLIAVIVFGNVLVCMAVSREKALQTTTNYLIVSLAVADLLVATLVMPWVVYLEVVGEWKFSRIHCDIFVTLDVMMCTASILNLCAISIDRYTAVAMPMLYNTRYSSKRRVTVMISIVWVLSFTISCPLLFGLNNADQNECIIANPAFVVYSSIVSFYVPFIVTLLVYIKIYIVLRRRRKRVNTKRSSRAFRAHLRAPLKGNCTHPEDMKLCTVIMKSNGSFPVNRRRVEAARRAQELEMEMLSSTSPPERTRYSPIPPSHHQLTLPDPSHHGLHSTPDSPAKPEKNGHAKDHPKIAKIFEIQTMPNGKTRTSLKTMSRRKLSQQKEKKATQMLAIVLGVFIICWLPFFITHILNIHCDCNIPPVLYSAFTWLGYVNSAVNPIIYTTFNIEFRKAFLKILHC
Source text: NIH Chemical Genomics Center [NCGC] NIH Molecular Libraries Probe Centers Network [MLPCN] MLPCN Grant: NS064831-01 Assay Submitter (PI): David Sibley Dopamine receptors (DARs) are involved in the etiology and/or therapy of a number of neuropsychiatric and endocrine disorders. For instance, all receptor-based antiparkinsonian drugs work via stimulating the D2 DAR subtype whereas all FDA-approved antipsychotic agents are antagonists of this receptor. […] There are three different types of allosteric modulators that we are seeking, two of which will stimulate or augment receptor signaling, allosteric agonists and potentiators, while the third, allosteric antagonists, will attenuate receptor signaling. The present primary screening assay measures compound antagonism after an EC80 addition of dopamine by tracking calcium flux in a […], inducible Hek293 Trex D2 cell line.
Freshly passaged cells are plated in 1536 well black, clear bottom plates at a density of 4000 cells/well in 3 ul of complete media containing 1x tetracycline inducer. After an overnight incubation at 30 C in 5% CO2, cells are loaded with 2 ul of the no wash Calcium Assay Kit (ABD Bioquest) and incubated at room temperature for 30 to 90 minutes. Agonist read: A 10 cycle (1 second/cycle) baseline measurement is taken and then the FDSS online 1536 pintool delivers 23 nl of compound library (as well as dopamine controls) to the plate. The plate is measured for kinetically at 1 cycle/sec for 180 seconds. Following the 180 second read, 1 ul of an EC80 (negative modulation assay) is delivered by an onboard pipette head. Measurements are taken kinetically for an additional 180 seconds.
With COc1cccc(CNCCc2c[nH]c3ccccc23)c1 the inhibition was active: 46.3%. In the case of COc1ccc(C(=O)C2CCCN(C3CSCCSC3)C2)c(OC)c1 (centres undefined), the inhibition is reported as active: 57%. Cc1ccc(-c2nc(CN3C(=O)CN=C(c4ccccc4Cl)c4cc(Cl)ccc43)c(C)o2)cc1 gave an inhibition of 13.2%. In the case of Cc1nn(CC(C)C)c(Cl)c1C(=O)NC1CCCCC1, the inhibition is reported as active: 30.2%. O=C1CC(c2ccc(C(F)(F)F)cc2)c2c(c3ccccc3oc2=O)O1 (centres undefined) showed an inhibition of 0.904%. Compound Cc1cccc(Cn2cccc(C(=O)Nc3nnc(C)s3)c2=O)c1 has an inhibition of 20%. C[C@@H]1C[C@H]2OC(=O)C3(CO3)[C@H]2[C@H](O)[C@]2(C)C(=O)C3OC3[C@@H]12 (some centres undefined) was tested, and the inhibition was active: 41.1%. COC(=O)c1ccccc1NC(=O)c1cccn(Cc2cccc(Cl)c2)c1=O gave an inhibition of -0.834%. With OC1(c2ccc(F)cc2)CCNC1 (centres undefined) the inhibition was active: 86.3%. For Clc1ccc(C(OCCN2CCCCC2)c2ccccc2)cc1 (centres undefined), the inhibition was active: 42.7%. In the case of COc1ccccc1OCC#CCN1CCCC(C)C1 (centres undefined), the inhibition is reported as active: 57.5%. In the case of CC1CN(c2cc([N+](=O)[O-])ccc2Cl)CC(C)N1 (centres undefined), the inhibition is reported as active: 68.7%. Compound O=C(Nc1ccc2c(c1)OCO2)c1cccn(Cc2ccccc2)c1=O has an inhibition of 9.62%. For CN1CCc2c([nH]c3ccccc23)C1, the inhibition was active: 51.4%. O=C(Nc1ccc(F)c(Cl)c1)N(Cc1ccc2c(c1)OCO2)C1CCN(Cc2ccccc2)CC1 gave an inhibition of -1.02%. Compound Nc1c(C(=O)Nc2ccc(F)c(Cl)c2)sc2nc3c(cc12)N1CCC3CC1 has an inhibition of -0.958%. For CN1CC(C(=O)c2ccc(F)cc2)C(c2ccc(F)cc2)C1 (centres undefined), the inhibition was active: 99.9%. C1=C(c2ccccc2)CCNC1 was tested, and the inhibition was active: 42.9%. CCC1(c2cccc(O)c2)CCCCN(C)C1 (centres undefined) was tested, and the inhibition was active: 39.3%. O=c1c2ccccc2nc(/C=C/c2cccc3ccccc23)n1-c1ccc(Cl)cc1 gave an inhibition of -1.44%. Compound COc1cc(OC)cc(C(=O)Nc2ccc(Cl)cc2C(=O)c2ccccc2Cl)c1 has an inhibition of 7.49%. For CCC12CN3CC(CC)(CN(C1)C3c1c(C)[nH]c(=O)[nH]c1=O)C2=O (centres undefined), the inhibition was -11.3%. COc1cc2[nH]c(=O)n(-c3ccc(C)cc3)c(=O)c2cc1OC gave an inhibition of -6.13%. Work on CCN(CC)C(=O)c1ccc(NC(=O)COc2ccc(-c3nn(C)c(=O)c4ccccc34)cc2)cc1 yielded an inhibition of -9.71%. With CCc1ccc(-n2nc(C)c3c2NC(=O)CSC3c2ccc(C(=O)OC)cc2)cc1 (centres undefined) the inhibition was -5.74%. Work on COc1ccccc1-c1nn2c(=O)cc(CN3CCN(C(=O)COc4ccccc4Cl)CC3)nc2s1 yielded an inhibition of 5.05%. With Cc1ccccc1-c1nc(CN2C(=O)CN=C(c3ccccc3)c3ccccc32)c(C)o1 the inhibition was 14.2%. In the case of O=C(Nc1ccc(Br)cc1C(=O)c1ccccc1Cl)c1ccc(Br)cc1, the inhibition is reported as -14.3%. For Cc1ccc(C2SCC(=O)Nc3c2c(=O)[nH]n3C2CCOC(C)(C)C2)cc1 (centres undefined), the inhibition was active: 37%. Cc1ccc2c(=O)n(-c3cccc(Cl)c3)c(=O)[nH]c2c1 showed an inhibition of -3.07%. In the case of Cc1ccc2nc(NC(=O)c3cccn(Cc4ccccc4F)c3=O)sc2c1, the inhibition is reported as -2.62%. With COc1ccc(CN2CCCC(C(=O)c3sccc3C)C2)cc1O (centres undefined) the inhibition was active: 41%. Cc1ccccc1-c1nn2c(=O)cc(CN3CCN(C(=O)COc4ccccc4Cl)CC3)nc2s1 showed an inhibition of 8.17%. For Cc1ccc(-n2c(/C=C\c3ccc(F)c(F)c3)nc3ccccc3c2=O)c(C)c1, the inhibition was 21%. CN(CCc1nnc(N)s1)[N+](=O)[O-] was tested, and the inhibition was active: 47.6%. For CCN1CCN(c2ccc(NC(C)=O)cc2Cl)CC1, the inhibition was active: 41.6%. Oc1cc2c(cc1CN1CCN(c3ccccc3F)CC1)OCO2 was tested, and the inhibition was active: 76.4%. Cc1cccc(OCC(=O)N2CCN(Cc3cc(=O)n4nc(-c5ccccc5Cl)sc4n3)CC2)c1 showed an inhibition of -24.4%. For COc1ccc(CNCCc2c[nH]c3ccccc23)c(OC)c1C, the inhibition was active: 33.1%. In the case of Cc1ccc(C(C)(C)C)c(OCC(=O)Nc2ccc(Cl)cc2C(=O)c2ccccc2)c1, the inhibition is reported as -1.76%. In the case of c1cnc2c(c1)ncn2C1CCNCC1, the inhibition is reported as -5.18%. In the case of COc1cccc(-n2c(/C=C\c3ccc(Cl)cc3)nc3ccccc3c2=O)c1, the inhibition is reported as -2.31%. Cc1ccc(OCC(=O)N2CCN(Cc3ccc(F)cc3)CC2)cc1 gave an inhibition of -14.4%. In the case of COc1ccccc1N1CCN(Cc2cccc(Br)c2)CC1, the inhibition is reported as active: 75.8%. Compound O=C(COc1ccc(Br)cc1)Nc1ccc(Cl)cc1C(=O)c1ccccc1 has an inhibition of 5.18%. Compound CCOc1ccc2nc(NC(=O)c3cccn(Cc4ccc(Cl)cc4)c3=O)sc2c1 has an inhibition of 4.86%. For CN1C(=O)C(=Cc2cn(CC(=O)N3CCCC3)c3ccccc23)C(=O)N(C)C1=O, the inhibition was active: 30.2%. For O=C(Nc1ccc2c(c1)OCCO2)c1cccn(Cc2cccc(F)c2)c1=O, the inhibition was -12.2%. CCc1ccccc1NC(=O)c1cccn(Cc2ccccc2F)c1=O gave an inhibition of 27.7%. Compound CCOc1ccc2nc(NC(=O)c3cccn(Cc4ccccc4)c3=O)sc2c1 has an inhibition of 10.4%. CSc1ccc(CN2CCN(C(=O)COc3ccc(C)cc3)CC2)cc1 showed an inhibition of -10.9%. CCCCC1(CN2CCCC2=O)C(=O)NC(=O)NC1=O was tested, and the inhibition was active: 44.6%. O=C(Nc1ccc(Cl)cc1C(=O)c1ccccc1)c1cc(Cl)cc(Cl)c1 was tested, and the inhibition was 6.29%. In the case of COc1ccc(OC)c(NC(=O)Cn2cc(C(=O)c3ccccc3)c3ccccc32)c1, the inhibition is reported as 3.94%. With c1cc2n(c1)-c1c(ccc3c1OCO3)CNC2c1ccc2c(c1)OCO2 (centres undefined) the inhibition was active: 51.1%. For Cc1ccc(CN2CCN(Cc3ccccc3F)CC2)cc1, the inhibition was active: 38.9%. Work on COc1ccc(C)cc1NC(=O)c1cccn(Cc2cccc([N+](=O)[O-])c2)c1=O yielded an inhibition of 13.2%. For COCc1ccc(CN2CCCC(C(=O)c3sccc3C)C2)o1 (centres undefined), the inhibition was active: 38.3%. CCCC12CN3CC(CCC)(CN(C1)C3c1ccccn1)C2=O (centres undefined) showed an inhibition of -1.23%. COc1cccc(/C=C/c2nc3ccccc3c(=O)n2-c2ccc(Cl)cc2)c1OC gave an inhibition of 11%. Compound Cc1nnc(NC(=O)c2cccn(Cc3cccc(Cl)c3)c2=O)s1 has an inhibition of 1.85%. Work on O=c1c2ccccc2nc(/C=C/c2ccccc2)n1-c1ccccc1F yielded an inhibition of -7.03%. c1cncc(CNCCc2c[nH]c3ccccc23)c1 was tested, and the inhibition was active: 33%. For COc1cc(C(c2c(O)c3ccccc3oc2=O)c2c(C)n(C)n(-c3ccccc3)c2=O)ccc1O (centres undefined), the inhibition was 3.4%. In the case of Fc1ccccc1N1CCN(Cc2ccc3c(c2)OCO3)CC1, the inhibition is reported as active: 88.4%. CN1CCN(c2oc(-c3ccc(COc4ccccc4)o3)nc2C#N)CC1 gave an inhibition of -4.23%. OCCN1C2CCC1CC(O)(c1ccc(F)cc1)C2 (centres undefined) was tested, and the inhibition was active: 48.2%. For CC1=CC(=O)C2=C(C)CC(O)C3C(C)C(=O)OC3C12 (centres undefined), the inhibition was active: 35.2%. With Cc1[nH]c2ccccc2c1CCCNC1CCCCC1 the inhibition was active: 38.8%. Cc1ccsc1C(=O)C1CCCN(Cc2c(C)nn(C(C)C)c2C)C1 (centres undefined) was tested, and the inhibition was active: 57.5%. For NCCCN1CCN(c2ccccc2)CC1, the inhibition was active: 95.3%. Nc1c(C(=O)Nc2ccc(Cl)cc2)sc2nc3c(cc12)N1CCC3CC1 gave an inhibition of 2.87%. O=C(Nc1ccc2c(c1)OCO2)c1cccn(Cc2cccc(F)c2)c1=O was tested, and the inhibition was -4.91%. Cn1cc(/C=C/c2nc3ccccc3c(=O)n2-c2ccccc2)c2ccccc21 gave an inhibition of -5.39%. In the case of CCN1CCN(Cc2cc(Br)ccc2O)CC1, the inhibition is reported as active: 63.9%. Work on Nc1c(C(=O)Nc2ccc(Br)cc2F)sc2nc3c(cc12)N1CCC3CC1 yielded an inhibition of -26.2%. In the case of O=[N+]([O-])c1cccc(O)c1, the inhibition is reported as active: 36.1%. Cc1c(Cl)cccc1NC(=O)CN1C(=O)C(C)N=C(c2ccccc2)c2ccccc21 (centres undefined) showed an inhibition of -1.82%. Work on O=C(Nc1ccc(Cl)cc1C(=O)c1ccccc1)c1ccccc1Br yielded an inhibition of 0.561%. With COc1cc(C(c2c(O)c3ccccc3oc2=O)c2c(C)n(C)n(-c3ccccc3)c2=O)ccc1OCC(=O)O (centres undefined) the inhibition was -12.2%. Compound CCCC12CN3CC(C)(CN(C1)C3c1ccccn1)C2=O (centres undefined) has an inhibition of -4.54%. O=C(COC(=O)Cc1ccccc1)Nc1nnc(-c2ccccc2)o1 was tested, and the inhibition was active: 30.6%. Work on Cc1ccc(-n2nc(C)c3c2NC(=O)CSC3c2ccc(O)cc2)cc1Cl (centres undefined) yielded an inhibition of 9.02%. Cc1ncc([N+](=O)[O-])n1CCOC(N)=O was tested, and the inhibition was active: 38.2%. O=c1c2ccccc2nc(/C=C/c2ccccc2O)n1-c1ccc(Br)cc1 gave an inhibition of 3.67%. In the case of Oc1cc2c(cc1O)[C@H]1c3ccccc3CN[C@@H]1CC2, the inhibition is reported as active: 92.2%. With CCCn1cc2c3c(cccc31)C1CC(C)CN(C)C1C2 (centres undefined) the inhibition was active: 86.6%. In the case of OC(CNC1CCCCC1)C(F)(F)F (centres undefined), the inhibition is reported as active: 39.7%. CCOc1ccc(NC(=O)c2cccn(Cc3cccc(Cl)c3)c2=O)cc1 gave an inhibition of 12.8%. With COc1cc2c(cc1O)[C@@H]1Cc3ccc(OC)c(O)c3CN1CC2 the inhibition was active: 75.2%. Fc1ccc2c(c1)nnn2C1CCN(Cc2ccccc2)CC1 was tested, and the inhibition was active: 81.8%. COc1ccc(NC(=O)CCc2nc(C3=CCN(Cc4cccc(Cl)c4)CC3)no2)cc1OC was tested, and the inhibition was 3.75%. COc1ccc(CNC(=O)CCC(=O)N2C[C@H]3C[C@H](C2)c2cccc(=O)n2C3)cc1OC was tested, and the inhibition was active: 36.4%. N#Cc1cccc(NC(=O)c2sc3nc4c(cc3c2N)N2CCC4CC2)c1 showed an inhibition of 6.42%. For Cc1oc(-c2ccccc2Cl)nc1CN1C(=O)CN=C(c2ccccc2)c2cc(Cl)ccc21, the inhibition was 4.92%. For N#Cc1cc2c(nc1SCC(=O)Nc1ccc(F)c(Cl)c1)C1CCN2CC1, the inhibition was 4.26%. COC(=O)C1=C(c2cc3ccccc3s2)C[C@@H]2CC[C@H]1N2C was tested, and the inhibition was active: 58.2%. With CCCCCCN1CCN(c2ccccc2Cl)CC1 the inhibition was active: 76.1%. COc1ccc(CCNCc2ccc3c(c2)n(C)c(=O)n3C)cc1 gave an inhibition of -12.4%. O=C(Nc1ccc(Br)cc1C(=O)c1ccccc1Cl)c1ccccc1F showed an inhibition of -10.9%. In the case of O=C1CC(c2ccc(F)cc2)c2c(c3ccccc3oc2=O)O1 (centres undefined), the inhibition is reported as 10%. In the case of CCCCCCNC(=O)N[C@H](Cc1ccc(O)cc1)C(=O)NCCC[C@H]1CN2C(=NC[C@H]2CCC)N1CC1CCC1, the inhibition is reported as active: 33.7%. With Cc1[nH]c2c(Cl)cccc2c1CCN the inhibition was active: 40.6%. In the case of C=CCn1c(O)c(C(CC)=NC2CC2)c(=O)[nH]c1=O, the inhibition is reported as active: 39.3%.
